Test results as given in article PMC4336329 (PLoS ONE, 2015).
About 2,200 (0.71%) of roughly 310,000 compounds showed an effect of 50% or more. The effect is printed as a negative number. Some of the results follow.

The compounds below were run against human ether-à-go-go-related gene (hERG) potassium channel (human, UniProt Q12809) (assay: primary screen, population patch clamp on CHO cells stably expressing hERG).
Chain of human ether-à-go-go-related gene (hERG) potassium channel (Q12809 whole entry, looked up): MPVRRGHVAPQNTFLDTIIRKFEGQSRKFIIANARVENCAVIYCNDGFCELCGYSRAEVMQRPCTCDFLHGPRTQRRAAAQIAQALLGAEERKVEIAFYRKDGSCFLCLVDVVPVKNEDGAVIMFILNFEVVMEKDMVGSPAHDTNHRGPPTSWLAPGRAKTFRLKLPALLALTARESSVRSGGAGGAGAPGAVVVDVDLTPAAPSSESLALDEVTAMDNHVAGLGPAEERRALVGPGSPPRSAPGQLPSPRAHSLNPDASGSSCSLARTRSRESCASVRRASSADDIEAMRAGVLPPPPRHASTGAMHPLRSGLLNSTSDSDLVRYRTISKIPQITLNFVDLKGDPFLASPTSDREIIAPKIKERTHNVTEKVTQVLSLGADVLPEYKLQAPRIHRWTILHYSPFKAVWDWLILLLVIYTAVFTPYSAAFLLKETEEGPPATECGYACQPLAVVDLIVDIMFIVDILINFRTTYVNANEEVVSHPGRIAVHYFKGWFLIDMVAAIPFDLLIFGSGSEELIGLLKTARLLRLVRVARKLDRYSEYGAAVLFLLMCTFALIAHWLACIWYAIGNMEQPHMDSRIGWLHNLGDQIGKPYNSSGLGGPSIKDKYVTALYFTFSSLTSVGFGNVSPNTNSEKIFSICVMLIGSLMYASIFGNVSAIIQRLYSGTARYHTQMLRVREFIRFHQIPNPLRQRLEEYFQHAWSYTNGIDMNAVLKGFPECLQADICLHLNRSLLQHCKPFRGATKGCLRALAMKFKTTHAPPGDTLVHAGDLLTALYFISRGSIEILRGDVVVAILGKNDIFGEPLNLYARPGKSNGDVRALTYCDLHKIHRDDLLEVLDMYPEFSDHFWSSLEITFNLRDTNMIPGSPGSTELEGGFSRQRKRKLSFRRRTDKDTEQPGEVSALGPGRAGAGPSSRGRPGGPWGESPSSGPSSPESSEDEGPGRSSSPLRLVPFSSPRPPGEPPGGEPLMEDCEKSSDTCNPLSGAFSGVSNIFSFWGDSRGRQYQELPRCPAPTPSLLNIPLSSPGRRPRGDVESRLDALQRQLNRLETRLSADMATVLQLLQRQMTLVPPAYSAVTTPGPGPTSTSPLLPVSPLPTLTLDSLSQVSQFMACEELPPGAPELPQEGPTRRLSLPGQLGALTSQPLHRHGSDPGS

Going from `COc1ccc(NC(=O)C#Cc2ccccc2)cc1OC` to `COc1ccc(NC(=O)CSc2nnc(-c3ccccc3)n2Cc2ccco2)cc1OC`, the “hERG current change (%, negative = inhibition) at 1uM” value falls from 8.43% to -7.89%.

Compared with `COc1ccc(C(=O)Nc2cc(C(F)(F)F)ccc2-n2cnc3ccccc32)cc1`, `CCCC(=O)Nc1c(-c2ccc(OC)cc2)c(=O)c2ccccc2n1C` is higher in “hERG current change (%, negative = inhibition) at 1uM” value: 10.7% for the first, 16.6% for the second.

First: COc1ccc(NC(=O)c2ccccc2NS(=O)(=O)c2ccc(CNC(C)=O)cc2)c(OC)c1
Second: O=C(O)c1cccc(S(=O)(=O)Nc2ccc(O)c(Sc3nc4ccccc4s3)c2)c1
The “hERG current change (%, negative = inhibition) at 1uM” value of the first is lower: 13.3% for the first, 26.7% for the second.

First: CC(=O)c1nnn(-c2ccc([N+](=O)[O-])cc2C)c1C
Second: Cc1cc(C)c(S(=O)(=O)n2c([N+](=O)[O-])cnc2C)cc1C
The “hERG current change (%, negative = inhibition) at 1uM” value of the first is higher: 5.69% for the first, 4.47% for the second.

First: CC(C)(C)C(=O)NC(=O)Nc1ccccc1C(F)(F)F
Second: CC(C)(C)NC(=O)CN1C(=O)NC(c2ccccc2)(c2ccccc2)C1=O
The “hERG current change (%, negative = inhibition) at 1uM” value of the first is higher: 22.2% for the first, 21.5% for the second.

Going from `Cc1ccccc1/C=N/n1c(-c2cc(-c3ccccc3)n[nH]2)n[nH]c1=S` to `CCn1c(CCn2c3ccccc3c3ccccc32)n[nH]c1=S`, the “hERG current change (%, negative = inhibition) at 1uM” value falls from 15.6% to 4.85%.

Going from `Cc1ccc(S(=O)(=O)c2ccc(C)cc2)cc1` to `CN(C)c1ccc(N=Nc2ccc(S(=O)(=O)[O-])cc2)c2ccccc12.[Na+]`, the “hERG current change (%, negative = inhibition) at 1uM” value falls from 16.2% to 7.18%.

Compared with `CCOc1ccc2nc(SCC(=O)Nc3ccc4c(c3)OCO4)sc2c1`, `CC(C)Nc1nnc(SCC(=O)NCc2ccc3c(c2)OCO3)s1` is higher in “hERG current change (%, negative = inhibition) at 1uM” value: 4.85% for the first, 19.7% for the second.

First: CC(=O)N(C)c1ccc(NC(=O)c2cnn(C)c2)cc1
Second: O=C(NC(=S)Nc1ccc2c(c1)OCO2)c1ccc(Cl)cc1
The “hERG current change (%, negative = inhibition) at 1uM” value of the first is lower: 10.7% for the first, 17.6% for the second.

First: COc1ccc(OCC(O)CNCCNc2nccc(C(F)(F)F)n2)cc1 (stereo not drawn)
Second: C=CCn1c(SCC(=O)NC2CCCCC2)nnc1-c1ccc(OC)cc1
The “hERG current change (%, negative = inhibition) at 1uM” value of the first is lower: -6.87% for the first, 0.827% for the second.

First: O=C(c1ccco1)N1N=C(c2cccs2)CC1c1cc([N+](=O)[O-])ccc1O (stereo not drawn)
Second: O=C(Cc1ccc([N+](=O)[O-])cc1)Nc1ccc(C(=O)N2CCOCC2)cc1
The “hERG current change (%, negative = inhibition) at 1uM” value of the first is lower: 5.87% for the first, 9.76% for the second.

First: CCN(C(=O)COC(=O)c1cn(-c2ccccc2)nc1-c1ccccc1)C1CCS(=O)(=O)C1 (stereo not drawn)
Second: c1ccc(C2=NN(c3ccccc3)CC2)cc1
The “hERG current change (%, negative = inhibition) at 1uM” value of the first is lower: -4.73% for the first, 4.9% for the second.

Compared with `CCC(C(=O)Nc1ccccc1C(=O)N1CCOCC1)N1C(=O)c2ccccc2C1=O` (stereo not drawn), `O=C1c2ccccc2C(=O)N1S(=O)(=O)c1ccccc1` is higher in “hERG current change (%, negative = inhibition) at 1uM” value: 6.63% for the first, 10.9% for the second.

Compared with `COc1cccc(C(=O)COC(=O)CCC(=O)NC2CCCCC2)c1`, `Cc1ccc(N(C(=O)c2ccco2)C(C(=O)NC2CCCC2)c2cccnc2)cc1` (stereo not drawn) is higher in “hERG current change (%, negative = inhibition) at 1uM” value: 10.1% for the first, 11.4% for the second.

Going from `O=C(c1ccccc1)c1cc(-c2ccccn2)c(N2CCOCC2)s1` to `CN1Cc2ccccc2N(CC(=O)NCc2ccccc2)C1=O`, the “hERG current change (%, negative = inhibition) at 1uM” value rises from 3.43% to 9.98%.

First: c1ccc(N2CCN(CCc3nnc4n3CCCCC4)CC2)cc1
Second: Cc1[nH]c(=O)[nH]c(=O)c1S(=O)(=O)N1CCC(C(=O)N2CCN(Cc3ccccc3)CC2)CC1
The “hERG current change (%, negative = inhibition) at 1uM” value of the first is lower: 2.9% for the first, 8.03% for the second.

First: CCCCOc1ccc(S(=O)(=O)N2CCN(C)CC2)cc1
Second: O=S(=O)(c1ccc(Cl)cc1)N1CCC(N2CCCCCC2)CC1
The “hERG current change (%, negative = inhibition) at 1uM” value of the first is higher: 11% for the first, -4.21% for the second.

Going from `N#C/C(=C\c1ccc(O)c(O)c1)C(=O)c1ccc(O)c(O)c1` to `COc1ccc(-n2c(C)cc(C(=O)COC(=O)c3ccc(O)cc3O)c2C)cc1`, the “hERG current change (%, negative = inhibition) at 1uM” value rises from 7.27% to 16.1%.

Compared with `CCn1c(/C=C2\C(=O)N(C(C)C)c3ccccc32)nc2ccccc2c1=O`, `CCn1c(CNc2nc(-c3ccccc3)cs2)nnc1SCC(=O)NCc1ccccc1` is lower in “hERG current change (%, negative = inhibition) at 1uM” value: 8.36% for the first, -13.9% for the second.

First: COc1ccccc1NC(=O)CSc1nnc(Cn2cnc3ccccc32)o1
Second: COC(=O)COc1cccc(-n2cnnn2)c1
The “hERG current change (%, negative = inhibition) at 1uM” value of the first is lower: 6.91% for the first, 16.3% for the second.

First: O=C(NC(=S)NCc1cccnc1)c1cc(Br)ccc1Cl
Second: COC(=O)c1ccc(CSc2nc3cc(Cl)ccc3s2)o1
The “hERG current change (%, negative = inhibition) at 1uM” value of the first is lower: 9.98% for the first, 14.4% for the second.

First: Fc1cccc(Cl)c1Cn1nnc2c(NCc3ccncc3)ncnc21
Second: Cc1ccc(C(=O)N/N=C\c2ccncc2)s1
The “hERG current change (%, negative = inhibition) at 1uM” value of the first is lower: -1.74% for the first, 5.19% for the second.

Going from `CN(C(=O)C1CCOC1)c1nnc(-c2cnccn2)s1` (stereo not drawn) to `CC(C)Nc1nnc(SC(C)C(=O)N(C)C2CCCCC2)s1` (stereo not drawn), the “hERG current change (%, negative = inhibition) at 1uM” value falls from 12.7% to 10.4%.

Going from `Cc1c(-c2ccco2)[n+](=O)c2c(n1[O-])CCCCC2` to `CCC1CCCCN1S(=O)(=O)c1ccc2c(c1)CCN2C(C)=O` (stereo not drawn), the “hERG current change (%, negative = inhibition) at 1uM” value rises from 3.5% to 5.26%.

Going from `CC1(C(=O)N/N=C/c2ccc([N+](=O)[O-])o2)CC1(Br)Br` (stereo not drawn) to `Cc1ccc(C)c2[nH]c(=O)c(CCNC(=O)c3ccc4c(c3)OCO4)cc12`, the “hERG current change (%, negative = inhibition) at 1uM” value rises from -3.34% to 13.1%.

Compared with `CCCc1cc(C(=O)N2CCCC(CO)(CCCc3ccccc3)C2)n(C)n1` (stereo not drawn), `CCOC(=O)c1c(C)c(C(=O)N2CCc3ccccc3C2)c(C)n1CC` is higher in “hERG current change (%, negative = inhibition) at 1uM” value: -7.57% for the first, -5.97% for the second.

Compared with `Clc1ccc(-c2n[nH]c3c2CCC3)c(Cl)c1`, `COCC(=O)c1[nH]c2ccccc2c1C` is lower in “hERG current change (%, negative = inhibition) at 1uM” value: 17.2% for the first, 5.05% for the second.

Compared with `NC(=O)CC(NC(=O)Cc1cccc2ccccc12)c1ccc(NC2CC3CCC2C3)c([N+](=O)[O-])c1` (stereo not drawn), `COc1ccc2[nH]c(C(=O)Nc3ccc(F)cc3Br)cc2c1` is higher in “hERG current change (%, negative = inhibition) at 1uM” value: 3.06% for the first, 13.5% for the second.

`O=C(NCCN1C(=O)C2C3C=CC(C3)C2C1=O)N1CCCCC1` (stereo not drawn) was tested, and the “hERG current change (%, negative = inhibition) at 1uM” value was 12.7%.
